Measurements from PubChem BioAssay AID463173 (ICCB-Longwood Screening Facility, Harvard Medical School, 2010).
About 4,300 (8.3%) of roughly 52,000 compounds were called active. Cut-off read from the data, not from the text of the source: active = survival mostly below about 52% (no sharp cut-off); inactive = mostly above about 56%. The list shows a part of the results.

What follows are compounds tested on DeltatarO mutant (assay: S. aureus survival, RN4220 and DeltatarO strains – OD600, teichoic acid synthesis inhibitors, primary screen (AID 463173)). Details: S. aureus RN4220 wild type/DeltatarO growth, OD600, 18 h, hits give low values, screened at 18.75 µg/mL (by protocol).

| Structure (SMILES) | survival |
| --- | --- |
| Cn1c(=O)c2c(nc(NCc3ccccc3)n2Cc2ccccc2)n(C)c1=O | active: 38% |
| Cn1c(=O)c2c(SCC(=O)NCc3ccco3)nc(-c3ccccc3)nc2n(C)c1=O | inactive: 76% |
| CCOC(=O)c1cnc2ccc(OC)cc2c1NCCc1ccccc1 | active: -2% |
| CN(c1ncnc2onc(-c3cccc(Cl)c3)c12)C1CCCCC1 | active: -17% |
| CCc1ccc(-n2nc3cc(C)c(NC(=O)c4cccc5ccccc45)cc3n2)cc1 | inactive: 76% |
| N#CC(Cc1cccnc1)C(=O)Nc1ccccc1 (configuration not stated) | inactive: 94% |
| CN(CC(=O)Nc1cccc(C(F)(F)F)c1)S(=O)(=O)c1cccs1 | inactive: 81% |
| CCOc1ccc(S(=O)(=O)Nc2ccc3c(c2)N(C(C)=O)CCC3)cc1 | inactive: 72% |
| COC(=O)C(C)Sc1ncnc2c1c(-c1ccccc1)cn2-c1ccc(F)cc1 (configuration not stated) | inactive: 76% |
| Cc1cccc(C)c1-n1ncc(C(=O)N2CCN(c3ccccc3)CC2)c1C1CCN(C(=O)OC(C)(C)C)CC1 | inactive: 94% |
| COc1cccc(CN(CCCN2CCOCC2)C(=O)c2cc3sccc3n2Cc2ccccc2)c1 | inactive: 70% |
| O=C(Cn1c(-c2cccs2)cc2ccccc21)NCCc1ccc(Cl)cc1 | inactive: 123% |
| CCOc1ccccc1NC(=O)c1cc2c(=O)oc3ccccc3c2s1 | inactive: 97% |
| COc1ccc2c(c1)C(c1ccc(N3CCOCC3)cc1)=NNC(c1cccnc1)=N2 | inactive: 92% |
| Cc1cncn1CCc1nc2c3ccccc3nc(SCC(=O)Nc3cccc(Cl)c3)n2n1 | inactive: 78% |
| O=C(c1ccc(CSc2nc3ccncc3n2Cc2cccc(F)c2)cc1)N1CCCCCC1 | inactive: 59% |
| COC(=O)c1cnc(N2CCN(c3ccccc3F)CC2)c2ccccc12 | inactive: 86% |
| Cc1ccc(NC(=O)C2CCN(c3nc4ccccc4[nH]3)CC2)c(C)c1 | inactive: 103% |
| Cc1ccc(Cn2c(=O)n(CCCC(=O)NCc3ccccc3Cl)c(=O)c3ccccc32)cc1 | inactive: 119% |

| Structure (SMILES) | survival |
| --- | --- |
| COc1ccc(OC)c(NC(=O)c2c(NCc3cccs3)sc3c2CCCC3)c1 | inactive: 99% |
| CCc1ccccc1NC(=O)c1cc(S(=O)(=O)N2CCCC2)cn1C | inactive: 76% |
| Cc1cccc(N2CCN(C(=O)CCc3c(C)nc4ncnn4c3C)CC2)c1C | inactive: 79% |
| COCCN1C(=O)c2[nH]nc(-c3cc(C)ccc3O)c2C1c1ccc(C(C)C)cc1 (configuration not stated) | active: 1% |
| COc1ccccc1NC(=O)NCCN1CCN(c2cccc(Cl)c2)CC1 | inactive: 77% |
| CC(C)c1cccc(C(C)C)c1NC1=NS(=O)(=O)c2ccccc21 | inactive: 76% |
| COc1ccc(C(=O)N(CC(=O)NC2CCCC2)C2CCCCC2)cc1OC | inactive: 75% |
| O=C(Cc1ccccc1)Nc1cccc(-c2cn3cccnc3n2)c1 | inactive: 91% |
| Cc1ccc(-c2nc(SCC(=O)NCc3ccco3)c3c(=O)n(C)c(=O)n(C)c3n2)cc1 | inactive: 85% |
| Cc1ccc(Nc2nnc(-c3ccc(C)c(S(=O)(=O)NCc4nc5ccccc5[nH]4)c3)c3ccccc23)cc1 | inactive: 77% |
| COc1ccc2[nH]c(=O)c(CN(Cc3cccs3)C(=O)c3cccs3)cc2c1 | inactive: 87% |
| CC(C)c1ccc(NC(=O)Cn2c(=O)n(CCc3ccccc3)c(=O)c3ccccc32)cc1 | inactive: 82% |
| CCc1cccc(CC)c1NC(=O)CN1C(=O)C(=O)c2ccccc21 | inactive: 70% |
| Cc1ccc(-c2nnc(Nc3cccc(O)c3)c3ccccc23)cc1S(=O)(=O)N1CCN(C)CC1 | inactive: 97% |
| CC1CCCCN1c1nnc(NC(=O)Nc2ccccc2F)s1 (configuration not stated) | inactive: 63% |
| Cc1ccc(/C=C/c2nc3ccccc3[nH]2)cc1 | inactive: 67% |
| CCc1ccc(NC(=O)CCS(=O)(=O)c2ccc3c(c2)n(C)c(=O)c(=O)n3C)cc1 | inactive: 80% |
| CC(C)COc1ccc(C(=O)N(Cc2ccc(N(C)C)cc2)Cc2ccco2)cc1 | inactive: 71% |
| CCC(Cn1nnc2ccccc2c1=O)NC(=O)Nc1ccc(C)c(C)c1 (configuration not stated) | inactive: 45% |

| Structure (SMILES) | survival |
| --- | --- |
| CS(=O)(=O)CCC(C(=O)Nc1cccc(C(F)(F)F)c1)N1Cc2ccccc2C1=O (configuration not stated) | active: 17% |
| O=C(c1ccco1)c1cn(CCOc2ccc(F)cc2)c2ccccc12 | inactive: 99% |
| CC1CCCN(C(=O)c2cc3c(Cl)nc4ccccc4c3s2)C1 (configuration not stated) | active: -5% |
| Cc1ccc(OCc2nc3ccccc3n2CCOc2ccc(Cl)cc2)cc1 | active: 15% |
| COc1ccc(Cl)cc1NC(=O)CN1C(=O)COc2ccc(S(=O)(=O)NC3CCCC3)cc21 | inactive: 86% |
| COc1ccc(-c2cc(C(=O)Nc3c(C)nn(Cc4ccc(C)cc4)c3C)no2)cc1OC | inactive: 60% |
| Cc1ccc(-c2nnc(Nc3ccc(O)cc3)c3ccccc23)cc1S(=O)(=O)N1CCOCC1 | inactive: 65% |
| CCOC(=O)c1cc(-c2ccccc2)n(-c2cccc(C(=O)Nc3ccc(OCC)cc3)c2)c1C | active: 37% |
| Cc1ccc(Nc2nn3c(=O)c4cc5c(cc4nc3s2)OCO5)cc1Cl | inactive: 59% |
| Cc1nc2nc(SCC(=O)NCc3ccccc3Cl)nn2c(C)c1Cc1ccccc1 | inactive: 64% |
| Cc1ccc(NC(=O)CC(C)S(=O)(=O)c2ccc3c(c2)NC(=O)CO3)cc1Cl (configuration not stated) | inactive: 83% |
| CCc1ccc(NC(=O)C(CC)n2c(=O)c(C(F)(F)F)nc3ccccc32)cc1 (configuration not stated) | inactive: 102% |
| CCc1nc(-c2cc(S(=O)(=O)N3CCN(c4ccccc4OC)CC3)ccc2OC)no1 | active: 42% |
| COc1cc(Cl)c(C)cc1Nc1ncnc2c1nc1n2CCCC1 | inactive: 85% |
| CCOC(=O)Cn1c(=O)c2c(nc3n2CCN3c2ccc(CC)cc2)n(C)c1=O | inactive: 79% |
| CC(=O)Nc1ccc(NC(=O)CSc2nccn2C)cc1 | inactive: 73% |
| COCCNc1sc(S(=O)(=O)c2ccc(C)cc2)nc1S(=O)(=O)c1ccc(C)cc1 | inactive: 108% |
| C=CCc1c(C)[nH]c(=S)[nH]c1=S | inactive: 79% |
| COc1cc(NC(=O)CC2C(=O)N(c3cccc(C)c3)C(=O)N2Cc2ccc(F)cc2)cc(OC)c1 (configuration not stated) | inactive: 94% |
